This list was built around the results that the source calls inconclusive (neither active nor inactive); the mix of calls is not that of the screen. For some assays here: Potencies beside an inconclusive call are fits to weak or partial responses and may not hold up. A structure can be active in one record and inactive in another. Calls of active or inactive are those of the source. Unless noted, the call rests on the fitted dose curve; in most records, active means well fitted curve in the direction sought with a large enough effect in the repeat runs; inconclusive means weak or mixed curves; inactive means no such curve, though single readings can be large; an effect the other way counts as inactive or inconclusive.
Key:
[1] = qHTS assay to identify small molecule agonists of H2AX (AID 1224845; active means well fitted activation curve with a large enough effect in the signal ratio in the repeat runs, not every such curve was filed as active; inconclusive means weak or mixed curves; the % refers to the signal ratio; further: potency means the concentration at half of the fitted maximal effect; on activation (H2AX phosphorylation): on the % scale 0 is the no-effect control and ±100 the full control effect); conditions: CHO-K1 phospho-H2AX Ser139 HTRF, 3 h; activation (H2AX phosphorylation): at 154 µM (top of the series) unless noted
Summary of the method: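 Wild-type CHO-K1 cells, plated overnight, exposed 3hr at 37C to 15 concentrations (0.76% DMSO final). Lysed, then HTRF anti-pH2AX (S139) cryptate and anti-H2AX-d2 antibodies, 24 hr room temperature; 665/620 nm emission read.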

[2] = qHTS assay to identify small molecule agonists of H2AX - cell viability counter screen (AID 1224847; calls by dose curve; further: nearly all actives have a fitted effect of over 30% in size; further: potency means the concentration at half of the fitted maximal effect); conditions: CHO-K1 viability, CellTiter-Glo luminescence, 3 h; series mostly up to 154 µM
Summary of the method: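 Cytotoxicity counter screen in wild-type CHO-K1 cells: a 3 hr compound treatment at 37C across 15 concentrations, followed by CellTiter-Glo luminescence to gauge viable cells.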

[3] = A CellTox Green Cytotoxicity Assay to monitor cytotoxicity in HEK293 cells - 40 hour (AID 1224871); conditions: CellTox Green fluorescence; series mostly up to 76.8 µM; further: potency means the concentration at half of the fitted maximal effect; nearly all actives have a fitted effect of over 45% in size
Summary of the method: (§1)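 Dead-cell fluorescence measured kinetically: asymmetric cyanine dye, HEK293, 600 cells/well, 5 h settle, 23 nL cpd/DMSO, 37 C, reads 0–40 h every 8 h.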

[4] = qHTS RealTime-Glo MT Cell Viability Assay in HEK293 cells - 16 hour (AID 1224872); conditions: RealTime-Glo luminescence; series mostly up to 76.8 µM; further: nearly all actives have a fitted effect of over 50% in size; further: potency means the concentration at half of the fitted maximal effect
Summary of the method: (§2)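 Nonlytic real-time viability readout: viable cells convert prosubstrate to NanoLuc substrate, giving luminescence proportional to live cell number. HEK293, 600 cells/well, compound added after 5 h, continuous culture at 37 C.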

[5] = qHTS RealTime-Glo MT Cell Viability Assay in HEK293 cells - 40 hour (AID 1224874); conditions: RealTime-Glo luminescence; max response: active compounds read low; further: potency means the concentration at half of the fitted maximal effect; nearly all actives have a fitted effect of over 50% in size
Summary of the method: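 600 HEK293 cells per well, dispensed already mixed with RealTime-Glo MT reagents. Compound dosing came 5 h later. The same wells were read for luminescence at 0, 8, 16, 24, 32 and 40 h of exposure at 37 C.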

[6] = A CellTox Green Cytotoxicity Assay to monitor cytotoxicity in HEK293 cells - 24 hour (AID 1224875); conditions: CellTox Green fluorescence; series mostly up to 76.8 µM; further: potency means the concentration at half of the fitted maximal effect; nearly all actives have a fitted effect of over 45% in size
Summary of the method: as §1

[7] = A CellTox Green Cytotoxicity Assay to monitor cytotoxicity in HepG2 cells - 16 hour (AID 1224876); conditions: CellTox Green fluorescence; series mostly up to 76.8 µM; further: potency means the concentration at half of the fitted maximal effect; nearly all actives have a fitted effect of over 45% in size
Summary of the method: (§3)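 First, HepG2 cells (600/well) mixed with reagent were plated; second, after 5 h at 37 C they received compounds via pintool; third, fluorescence was measured at 0 h through 40 h at 8 h intervals.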

[8] = A CellTox Green Cytotoxicity Assay to monitor cytotoxicity in HepG2 cells - 24 hour (AID 1224878); conditions: CellTox Green fluorescence; series mostly up to 76.8 µM; further: potency means the concentration at half of the fitted maximal effect; nearly all actives have a fitted effect of over 45% in size
Summary of the method: as §3

[9] = A CellTox Green Cytotoxicity Assay to monitor cytotoxicity in HEK293 cells - 32 hour (AID 1224881); conditions: CellTox Green fluorescence; series mostly up to 76.8 µM; further: potency means the concentration at half of the fitted maximal effect; nearly all actives have a fitted effect of over 40% in size
Summary of the method: as §1

[10] = qHTS RealTime-Glo MT Cell Viability Assay in HEK293 cells - 32 hour (AID 1224868); conditions: RealTime-Glo luminescence; series mostly up to 76.8 µM; further: potency means the concentration at half of the fitted maximal effect; nearly all actives have a fitted effect of over 50% in size
Summary of the method: as §2

[11] = A CellTox Green Cytotoxicity Assay to monitor cytotoxicity in HepG2 cells - 40 hour (AID 1224879); conditions: CellTox Green fluorescence; series mostly up to 76.8 µM; further: potency means the concentration at half of the fitted maximal effect; nearly all actives have a fitted effect of over 40% in size
Summary of the method: as §3

[12] = qHTS RealTime-Glo MT Cell Viability Assay in HepG2 cells - 8 hour (AID 1224873); conditions: RealTime-Glo luminescence; series mostly up to 76.8 µM; further: potency means the concentration at half of the fitted maximal effect; nearly all actives have a fitted effect of over 55% in size
Summary of the method: (§4)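 HepG2 cells (600/well) mixed with RealTime-Glo MT reagent, settled 5 h at 37 C/5% CO2 before compound addition. Nonlytic NanoLuc luminescence from viable-cell prosubstrate reduction read repeatedly during 40 h treatment at 37 C.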

[13] = qHTS RealTime-Glo MT Cell Viability Assay in HepG2 cells - 40 hour (AID 1224870); conditions: RealTime-Glo luminescence; series mostly up to 76.8 µM; further: potency means the concentration at half of the fitted maximal effect; nearly all actives have a fitted effect of over 50% in size
Summary of the method: as §4

[14] = qHTS RealTime-Glo MT Cell Viability Assay in HepG2 cells - 32 hour (AID 1224877); conditions: RealTime-Glo luminescence; series mostly up to 76.8 µM; further: potency means the concentration at half of the fitted maximal effect; nearly all actives have a fitted effect of over 55% in size
Summary of the method: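 Luminescence read-out: viable HepG2 cells reduce a prosubstrate to a NanoLuc substrate, giving a signal proportional to live cell number. Reads taken at 0, 8, 16, 24, 32 and 40 h of compound exposure at 37 C.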

[15] = qHTS assay to identify small molecule antagonists of the estrogen related receptor (ERR) signaling pathway from Tox21 library (AID 1224848); conditions: ERR reporter cell line, luciferase antagonist mode, 18 h; series mostly up to 92.4 µM
Summary of the method: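 Quantitative high-throughput format: ERR reporter cells (2,000/well) pre-incubated 6 h, treated 18 h at 37 C with compounds in DMSO alongside positive and negative controls, then read by ONE-Glo luminescence.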
Tags describe the fitted curve by direction and shape or compound fluorescence and quenching.

S=c1[nH]c2ccccc2s1
inactive: Potency [2] | Potency [4]
active: Potency [6] 43.6 µM | Potency [9] 49 µM
inconclusive: Potency [1] 89.8 µM | Potency [3] 49 µM [activator, single point] | Potency [5] 7.76 µM [rising, partial curve] | Potency [7] 54.9 µM [activator, partial curve, poor fit] | Potency [8] 24.5 µM [activator, single point]

CN(C/C=C/C#CC(C)(C)C)Cc1cccc2ccccc12
active: Potency [2] 55.2 µM
inconclusive: Potency [1] 61.9 µM [activator, single point] | Potency [10] 26.8 µM [cytotoxic, partial curve, poor fit] | Potency [3] 26.8 µM [activator, single point] | Potency [4] 19 µM [cytotoxic, partial curve] | Potency [5] 26.8 µM [cytotoxic, partial curve, poor fit] | Potency [6] 26.8 µM [activator, single point] | Potency [9] 26.8 µM [activator, single point]

CC(=O)N/N=C/c1ccc([N+](=O)[O-])o1
inconclusive: Potency [1] 55.2 µM [activator, single point] | Potency [2] 61.9 µM [rising, single point] | Potency [4] 23.9 µM [rising, partial curve, poor fit] | Potency [11] 26.8 µM [activator, single point]

NC(=NCCCCCCN=C(N)/N=C(\N)Nc1ccc(Cl)cc1)/N=C(\N)Nc1ccc(Cl)cc1
inconclusive: activation (H2AX phosphorylation) [1] -4.69% | Potency [2] 112 µM [cytotoxic, single point] | Potency [3] 26.8 µM [activator, single point] | Potency [4] 8.49 µM [cytotoxic, partial curve] | Potency [12] 54.4 µM [falling, single point] | Potency [6] 26.8 µM [activator, single point] | Potency [7] 54.4 µM [activator, single point] | Potency [9] 26.8 µM [activator, single point]
active: Potency [10] 8.67 µM [middle of 5 runs]

Cc1cc(=O)c2c(O)c3c(O)cc(=O)c4c3c3c(cc(O)c1c23)C(C)(C)C=4O
inconclusive: Potency [1] 9.56 µM [fluorescent, partial curve] | Potency [2] 1.52 µM [cytotoxic, full curve] | Potency [13] 0.585 µM [falling, full curve] | Potency [5] 2.08 µM [cytotoxic, full curve] | Potency [14] 0.465 µM [cytotoxic, partial curve, poor fit]
active: Potency [3] 4.65 µM

Cc1cccc(C)c1OCC(=O)N[C@@H](Cc1ccccc1)[C@@H](O)C[C@H](Cc1ccccc1)NC(=O)[C@H](C(C)C)N1CCCNC1=O
inconclusive: activation (H2AX phosphorylation) [1] 10% [at 70.9 µM] | Potency [2] 55.2 µM [cytotoxic, single point] | Potency [3] 26.8 µM [activator, single point] | Potency [6] 26.8 µM [activator, single point] | Potency [9] 26.8 µM [activator, single point]

C=C(C)C1CC=C(C)C(OC(C)=O)C1 (stereo unspecified)
inactive: Potency [1] | Potency [15]
inconclusive: Potency [3] 68.9 µM [activator, single point] | Potency [6] 61.4 µM [activator, single point] | Potency [9] 61.4 µM [activator, single point]

CC(=O)NC1(c2cccc(F)c2)CCN(CC[C@@]2(c3ccc(Cl)c(Cl)c3)CN(c3ccccc3)C(=O)CO2)CC1
inconclusive: Potency [1] 101 µM [activator, single point] | Potency [2] 101 µM [cytotoxic, single point] | Potency [3] 43.8 µM [activator, single point] | Potency [12] 43.8 µM [falling, partial curve] | Potency [6] 43.8 µM [activator, single point] | Potency [7] 43.8 µM [activator, single point] | Potency [8] 43.8 µM [activator, single point] | Potency [9] 49.1 µM [activator, single point]
active: Potency [10] 17.4 µM | Potency [4] 17.4 µM

— PubChem BioAssay (Tox21)
